Measured values published in PubChem BioAssay AID624418 (National Center for Advancing Translational Sciences (NCATS), 2012).
Among all 410,000 compounds or so, about 530 (0.13%) were called active. The shares of active, inactive and inconclusive entries below differ from those in the screen. Calls follow the shape of the dose curve; as a rule, active = well fitted inhibition curve with a large enough effect; inconclusive = small, poorly fitted or top-dose-only effect, or another doubt; inactive = no such curve, though single readings can be large or run the other way. Where the call is inconclusive, the potency comes from a doubtful curve fit.

Experiment: qHTS of GLP-1 Receptor Inverse Agonists: Cytotox Screen
Details: HEK293 cAMP-luciferase reporter cells, luminescence, 24 h; series mostly up to 38.3 µM
Outline: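 MLSMR compounds, 24 hr on cells at 37 deg C/5% CO2; luminescence after luciferase reagent (12 min RT). Inhibition counted as the undesired cytotoxic outcome.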
Potency is read from the fitted curve at half-maximal effect.

| SMILES | Potency |
| --- | --- |
| CCCC(=O)N1CCCC1(C)C(=O)Nc1ccc(-n2cccc2)cc1 (stereo not drawn) | inactive |
| C=CC[C@H](CC(=O)NCCO)C(=O)N[C@@H](COC(=O)[C@@H](CC=C)Cc1ccc(F)cc1)Cc1ccccc1 | inactive |
| CCN1CCCC1CNC(=O)c1cc2c(-c3ccc(Cl)cc3)nn(C)c2s1 (stereo not drawn) | inconclusive: 28.2 µM [inhibitor, single point] |
| COCCn1c(CNC(=O)c2ccccc2C)nc2cccnc21 | inactive |
| O=S(=O)(c1ccc(-c2nc3ccccc3s2)cc1)N1CCCC1 | inactive |
| O=C(/C=C/c1ccco1)Nc1ccccn1 | inconclusive: 20 µM [inhibitor, single point] |
| C=C(C)COc1ccc(-c2[nH]ncc2-c2ccc(OC)c(OC)c2)c(O)c1 | inconclusive: 3.98 µM [inhibitor, partial curve] |
| CC(C)(C)NC(=O)Cn1cc(S(=O)(=O)Cc2ccccc2Cl)c2ccccc21 | inactive |
| CN1CCN(CCCNC(=O)c2cn(C3CCCCC3)c(=O)c3c2c2ccccc2n3C)CC1 | inactive |
| Cc1cc(-c2nn(-c3ccccc3F)cc2CNCCc2cnc[nH]2)c(C)s1 | inactive |
| C=CCn1c(-c2ccc(Cl)cc2)c[nH]c1=S | inconclusive: 14.1 µM [inhibitor, partial curve, poor fit] |
| CC(C)(C)S(=O)(=O)/C(C#N)=N/Nc1ccc(Cl)cc1 | inconclusive: 11.2 µM [inhibitor, single point] |
| COc1cc(/C=N/n2cnnc2)ccc1OC(=O)c1cccnc1 | inactive |
| CSc1ccccc1NC(=S)NC1CCCC1 | inconclusive: 11.2 µM [inhibitor, partial curve] |
| C=CCn1c(=O)c2c3c(sc2n2c(Nc4ccc(OC)cc4)nnc12)CCCC3 | inconclusive: 3.98 µM [inhibitor, partial curve, poor fit] |
| Cc1nc(SCc2ccccc2)c([N+](=O)[O-])[nH]1 | inconclusive: 3.55 µM [inhibitor, partial curve, poor fit] |
| CCC(NC(=O)CCCc1ccccc1)c1ccccc1 (stereo not drawn) | inconclusive: 14.1 µM [inhibitor, single point] |
| CN1CCC(NC(=O)c2cc(-c3cccc(Br)c3)nc3ccccc23)CC1 | inconclusive: 28.2 µM [inhibitor, single point] |
| Cc1nnc(N2CCCC(C(=O)Nc3cc(F)ccc3F)C2)c2nn(-c3ccccc3)c(C)c12 (stereo not drawn) | inconclusive: 15.8 µM [inhibitor, partial curve, poor fit] |
| O=C(N/N=C/c1ccc[nH]1)c1ccc([N+](=O)[O-])cc1 | inconclusive: 12.6 µM [inhibitor, single point] |
| COc1cc(NC(=O)COCc2cc(-c3ccc4c(c3)OCO4)on2)c(OC)cc1Cl | inactive |
| COc1cc2ccccc2cc1C(=O)Nc1ccc(N2CCN(C)CC2)cc1 | inconclusive: 3.55 µM [inhibitor, partial curve, poor fit] |
| CN1C(=O)/C(=C\c2cc(Br)cs2)c2ccccc21 | inconclusive: 22.4 µM [inhibitor, single point] |

| SMILES | Potency |
| --- | --- |
| O=C(Nc1cccc(C(F)(F)F)c1)c1ccc2nc(-c3ccco3)c(-c3ccco3)nc2c1 | inconclusive: 28.2 µM [inhibitor, single point] |
| CN1CCN(S(=O)(=O)c2cccc(C(=O)N(C)Cc3cccs3)c2)CC1 | inactive |
| C=CCOc1ccc(/C=C2\SC(=S)N(NS(=O)(=O)c3ccc(C)cc3)C2=O)cc1 | inconclusive: 11.2 µM [inhibitor, partial curve, poor fit] |
| CCCCNC(=O)[C@H](CSCc1ccccc1)N1Cc2ccccc2C1=O | inconclusive: 7.94 µM [inhibitor, partial curve, poor fit] |
| COCCOC(=O)C1=C(C)NC2=C(C(=O)CC(C)(C)C2)C1c1cc2c(cc1Br)OCO2 (stereo not drawn) | inconclusive: 31.6 µM [inhibitor, single point] |
| COc1ccc(NC(=O)C(=O)NNC(=O)C(C)Oc2ccc(Cl)cc2Cl)cc1 (stereo not drawn) | inactive |
| CC(C)(C)NC(=S)Nc1ccc(Nc2ccccc2)cc1 | inconclusive: 10 µM [inhibitor, partial curve] |
| COc1cc(CN2CCC(CO)(Cc3cccc(C(F)(F)F)c3)CC2)ccc1F | inconclusive: 8.91 µM [inhibitor, partial curve, poor fit] |
| Cc1ccc(CNC(=O)COC(=O)c2ccc(S(=O)(=O)N3CCCCCC3)cc2)cc1 | inactive |
| O=C1CS/C(=N/N=C/c2cccs2)N1 | inactive |
| Cc1cc(N2CCCC2)nc2ccc(NC(=S)NCCCN3CCC(C)CC3)cc12 | inconclusive: 3.55 µM [inhibitor, partial curve, poor fit] |
| COc1ccc(-c2nnc(Nc3nc4c(OC)cccc4s3)o2)c(OC)c1 | inconclusive: 7.08 µM [inhibitor, partial curve, poor fit] |
| Cc1nn(Cc2ccccc2)c(C)c1NC(=O)CCCn1nc([N+](=O)[O-])c(Cl)c1C | inactive |
| CC(C)(C)OC[C@H](NC(=O)c1[nH]cnc1C(=O)Nc1ccccc1F)C(=O)OC(C)(C)C | inconclusive: 11.2 µM [inhibitor, single point] |
| Cc1nc(-c2ccccc2)sc1-c1ccc(SCC(=O)Nc2ccccc2)nn1 | inactive |
| CCCn1nnc(NC(=S)NC(=O)Cc2ccccc2)n1 | inconclusive: 3.55 µM [inhibitor, full curve] |
| COc1ccccc1CNC(=O)CCS(=O)(=O)Cc1ccc(C)cc1 | inactive |
| Cc1ccc(NC(=O)C2=C(c3ccccc3)S(=O)(=O)CCS2(=O)=O)cc1 | inconclusive: 2 µM [inhibitor, partial curve, poor fit] |
| O=C(CCNS(=O)(=O)c1ccc(Br)s1)Nc1ccc(Br)cc1 | inactive |
| Cc1ccc(C)c(NC(=S)NC(=O)c2cncc(Br)c2)c1 | inconclusive: 28.2 µM [inhibitor, single point] |
| CCCc1cc(NCc2ccccn2)n2nc(C)c(-c3ccccc3)c2n1 | inconclusive: 5.62 µM [inhibitor, partial curve] |
| Cc1ccc(CNCc2ccc3c(c2)n(C)c(=O)n3C)cc1 | inactive |
| N#C/C(=N\Nc1ccc(Cl)cc1)C(=O)c1ccccc1 | inconclusive: 7.94 µM [inhibitor, partial curve, poor fit] |

| SMILES | Potency |
| --- | --- |
| Cn1c(CNC(=O)c2ccco2)nnc1SCC(=O)c1ccc(F)cc1 | inactive |
| CCc1ccc(C(CNC(=O)c2ccc3c(=O)n(-c4ccccc4F)c(=S)[nH]c3c2)N(C)C)cc1 (stereo not drawn) | inconclusive: 25.1 µM [inhibitor, partial curve, poor fit] |
| O=C(NCc1ccccc1Cl)C(=O)NCC(c1ccc2c(c1)OCO2)N1CCOCC1 (stereo not drawn) | inactive |
| CCOc1ccc2nc(N(Cc3cccnc3)C(=O)c3ccco3)sc2c1 | inactive |
| COc1ccc(NC(=O)/C(C#N)=C\c2cc(C)n(-c3ccc4c(c3)OCO4)c2C)cc1 | inconclusive: 2.51 µM [inhibitor, full curve, poor fit] |
| O=[N+]([O-])c1cc2c(c([N+](=O)[O-])c1)Nc1ccccc1O2 | inconclusive: 10 µM [inhibitor, partial curve] |
| Oc1ccc(C[C@@H]2CNC(=S)N2CCCCC2CCCCC2)cc1 | inconclusive: 11.2 µM [inhibitor, partial curve] |
| Cn1cccc1-c1cc2n(n1)CCC(=O)N2CCCC(=O)NCc1ccc(F)cc1 | inactive |
| CCOc1ccc2nc(N3CCCC(C(=O)NCCCN4CCCCC4)C3)sc2c1 (stereo not drawn) | inconclusive: 28.2 µM [inhibitor, single point] |
| Cc1ccc(-c2nn(-c3ccccc3)cc2CNCc2ccccc2)cc1 | inconclusive: 28.2 µM [inhibitor, single point] |
| O=c1cc(-c2ccccc2)nc2cc(-c3ccc(Br)cc3)[nH]n12 | inactive |
| Cc1cc(C(=O)Nc2nc(-c3ccccn3)cs2)ccc1[N+](=O)[O-] | inconclusive: 31.6 µM [inhibitor, single point] |
| Cc1ccc(-n2nc3c(c2NC(=O)c2ccc4c(c2)OCO4)CS(=O)(=O)C3)cc1 | inactive |
| OCCN(Cc1ccccc1)CC(O)COc1ccc(-c2ccccc2)cc1 (stereo not drawn) | inconclusive: 12.6 µM [inhibitor, single point] |
| C/C(=N\NC(=O)C1CC1)c1ccc(OC(F)F)cc1OC(F)F | inconclusive: 28.2 µM [inhibitor, single point] |
| CCOC(=O)N1CCN(C(=O)C(C)n2nc(C)n3c(cc4sccc43)c2=O)CC1 (stereo not drawn) | inconclusive: 11.2 µM [inhibitor, single point] |
| Cc1cccc(C(=O)NC(=S)N(C)C2CCCCC2)c1 | inconclusive: 2.24 µM [inhibitor, full curve, poor fit] |
| Cn1cc(CN2CCC(C(=O)NC(c3ccc(-c4ccccc4)cc3)c3cnccn3)CC2)c2ccccc21 (stereo not drawn) | inconclusive: 12.6 µM [inhibitor, single point] |
| CC(=O)Oc1ccc2ccccc2c1C(NC(=O)Cc1ccccc1)c1ccc(Cl)cc1 (stereo not drawn) | inconclusive: 25.1 µM [inhibitor, single point] |
| Cc1cc(N2CCOCC2)nc2ccc(NC(=S)N3CCN(c4ccccc4)CC3)cc12 | inconclusive: 28.2 µM [inhibitor, single point] |
| COCCOC(=O)c1c(C)oc2ccc(OS(C)(=O)=O)cc12 | inactive |
| COc1ccc(N2C(=O)/C(=C\c3ccco3)N=C2SCC(=O)NC(C)(C)C)cc1Cl | inconclusive: 10 µM [inhibitor, partial curve, poor fit] |
